Results on one compound are retold here after PubChem BioAssay AID1845197 (Molecular Pharmacology Branch, DTP, NCI, 2023).

A number of entries come with more than one value. Only these are listed. The source may hold further records. Values that stand side by side are repeats across runs, samples, wells, individuals or studies.

The experiment deals with 349418-098-R tumor spheroid viability. In words: Anticancer human tumor 349418-098-R patient-derived lung adenocarcinoma cell line growth inhibition. The conditions noted are these: compound 30 pM; stronger effect = lower value; spheroids with HUVEC and MSC. The text has this:
Multicellular complex tumor spheroid response to DNA repair inhibitors in combination with DNA-damaging drugs
This study explores the anticancer activities of DNA-damaging drugs and inhibitors of DNA damage repair, both as single agents and in combinations. Complex tumor spheroids comprised of malignant cells, endothelial cells and mesenchymal stem cells served as an in vitro model for human solid tumors. This model system incorporates physiologically relevant features and patient-derived or established malignant cell lines with clinically relevant genetic alterations from many tumor types. Twenty-six patient-derived or established malignant cell lines were evaluated representing sarcoma, melanoma, small cell lung cancer (SCLC), non-small cell lung cancer (NSCLC), as well as bladder, ovarian and pancreatic cancers. The concentration ranges selected for each drug and investigational agent were based upon clinically achievable concentrations if the clinical Cmax of the agent was known.
Compounds. […] If the clinical Cmax for an agent had not been determined, the highest concentration tested was 10 microM. […]
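Also: spheroids exposed to compound for 7 days before measurement; percent of vehicle control viability with 100% = DMSO-treated spheroids.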

As to `COc1cc2c(cc1O)CCNC21CSC2c3c(OC(C)=O)c(C)c4c(c3C(COC1=O)N1C(O)C3Cc5cc(C)c(OC)c(O)c5C(C21)N3C)OCO4` (stereo unspecified), the viability, T/C is listed as 104, 87.2, 94.1, 110, 108, 103, 91, 89.2, 96.2, 84.9%.
